# Data: article PMC10281575, “PfCRT mutations conferring piperaquine resistance in falciparum malaria shape the kinetics of quinoline drug binding and transport” (PLOS Pathogens, 2023)
# Several values for one entry are separate records, joined by “and”; a condition that tells them apart may be missing. Equal values may be shown once. Further values from the same series stand in other lists.
# Columns and labels:
# [1] = biological target: T1, PfCRT^Dd2_F145I (Plasmodium falciparum, UniProt Q8IBZ9, A220S/F145I/I356T/K76T/M74I/N326S/N75E/Q271E/R371I); assay: Competition kinetics of drug transport (radiolabeled substrate plus cold inhibitor), PfCRT^Dd2_F145I-expressing oocytes; type: cell-based
# T1 construct: expressed in transfected cells; host or cells: Xenopus laevis oocytes injected with in vitro transcribed RNA (pSP64T)
# T1 sequence (Q8IBZ9 1-424 M74I/N75E/K76T/F145I/A220S/Q271E/N326S/I356T/R371I): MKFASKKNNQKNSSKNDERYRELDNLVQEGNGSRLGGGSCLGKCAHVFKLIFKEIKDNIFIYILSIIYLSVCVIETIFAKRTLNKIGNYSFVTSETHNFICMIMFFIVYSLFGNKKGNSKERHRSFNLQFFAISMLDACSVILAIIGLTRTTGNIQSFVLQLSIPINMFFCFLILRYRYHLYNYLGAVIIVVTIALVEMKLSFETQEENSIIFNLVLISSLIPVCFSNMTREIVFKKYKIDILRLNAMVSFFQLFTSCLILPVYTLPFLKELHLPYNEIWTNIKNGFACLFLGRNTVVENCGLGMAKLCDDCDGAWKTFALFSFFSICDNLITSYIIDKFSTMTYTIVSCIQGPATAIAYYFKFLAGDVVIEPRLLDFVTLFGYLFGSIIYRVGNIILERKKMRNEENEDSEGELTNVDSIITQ
# Procedure: To further characterize the kinetic relationship between CQ and PPQ, we performed a series of competition reactions. To this end, water-injected oocytes and PfCRT-expressing oocytes were incubated in medium containing one of seven concentrations of radio-labeled CQ and one of six concentrations of cold PPQ for 60 min before the amount of radio-labeled CQ uptake was determined. The rate of PfCRT-mediated CQ uptake was calculated for each condition by subtracting the corresponding value obtained for water-injected oocytes from those of PfCRT-expressing oocytes. The results were analyzed as a function of the CQ concentration (Fig 4A) and 16 different models of substrate competition were globally fit to the data by the least-squares method, using Python. The models were ranked, according to their Akaike information criterion difference (ΔAICC) and their Akaike weight (Fig 4B), with the most plausible model being the one with the lowest AICC (ΔAICC = 0) and the highest Akaike weight.
# A complementary set of experiments was undertaken to investigate the kinetic mechanism by which PfCRT^Dd2_F145I accepts CQ and PPQ (Fig 6). […] These included a global fit of the substrate competition data to the 16 kinetic models (Fig 6), analysis of the secondary plots (Vmax,app and Vmax,app/KM,app as a function of the inhibitor concentration) (Fig 7A), a fractional velocity plot analysis (Fig 7B) and a comparison of the experimental data with the modelled data using the noncompetitive inhibition equation (Fig 7C to 7F). […] The fractional velocity plot illustrated the partial character of the noncompetitive inhibition mechanism by yielding a partiality factor β^CQ = 0.31 ± 0.04, by which PPQ reduces the transport velocity of CQ (Fig 7B). […] A 3D model of the kinetics between PfCRT^Dd2_F145I, CQ and PPQ, and analyses of the residuals as a function of substrate and inhibitor concentrations confirmed that the model was also an appropriate explanation for the mutant transporter (Fig 7C to 7F).
# (§1) Drug transport assays were performed as previously described. Briefly, measurements of radiolabeled drug uptake were made over 1 h, unless otherwise specified. […] Where specified, one or more unlabeled drugs were also present at the indicated concentrations. The direction of drug transport in the assays is from the extracellular medium (pH 6) into the oocyte cytosol (pH 7.2), which corresponds to the efflux of CQ or PPQ from the acidic digestive vacuole (pH 5.2) into the parasite cytosol (pH 7.2). The uptake assays were terminated by removing the oocytes from the reaction medium and washing them three times with 2 mL of ice-cold ND96 buffer. Each oocyte was transferred to a separate scintillation vial and lysed by the addition of 200 μL of a 5% SDS solution. The radioactivity in the sample was measured using a liquid scintillation analyser Tri-Carb 4910 TR (PerkinElmer). Water-injected oocytes were analyzed in parallel as a negative control. The buffer from each condition was measured in duplicate in parallel to each experiment to transform counts per minute into pmol of drug. Drug uptake attributable to PfCRT was determined by subtracting the background uptake from water-injected oocytes from that of PfCRT-expressing oocytes. In all cases, at least three independent experiments were performed on oocytes from different frogs, and for each condition in an experiment, measurements were made from 10 oocytes per treatment.
# The following equations were adopted from Segel (1993), and the reader is referred to that text for the assumptions made in the author’s approach in the derivation of each equation [31]. The concentration of substrate is denoted as [S1] and the concentration of the inhibiting substrate is denoted as [S2]. KS1 and KS2 are the dissociation constants for the respective substrate-protein complexes.
# Analyses of the kinetic data were performed using SigmaPlot version 13.0 and Python. […]
# [2] = biological target: T1, PfCRT^Dd2_F145I; assay: Verapamil inhibition of PfCRT-mediated CQ and PPQ transport in oocytes, PfCRT^Dd2_F145I; type: cell-based; details: individual replicates (S3 Fig)
# Procedure: In all cases, the PfCRT-mediated CQ and PPQ transport was inhibited in the presence of 100 μM verapamil (S3 Fig).
# as §1
# Supplementary file ppat.1011436.s006.tif: S3 Fig Verapamil inhibits PfCRT-mediated transport of CQ and PPQ. […] Left panels, data is shown as individual biological replicates (coloured symbols) overlaid onto bars representing the Mean ± S.E.M. (error bars). A one-tailed Student’s t-test was performed between untreated (no VP) and treated (+ 100 μM VP) samples, and the obtained p values are shown. Right panels, the uptake in VP-treated samples was divided by the uptake in their corresponding untreated pairs and subtracted from 100% to get the percentage of uptake inhibition mediated by the presence of 100 μM verapamil in the extracellular medium. Error bars are S.E. (TIF) Click here for additional data file.
structure (smiles),measurement,setting,value
"CCN(CC)CCCC(C)Nc1ccnc2cc(Cl)ccc12 (centres unmarked) [CQ, chloroquine]",PfCRTDd2_F145I-mediated CQ transport,"[1]; 10 µM CQ, 50 µM PPQ",0.41 pmol oocyte-1 h-1
same,PfCRTDd2_F145I-mediated CQ transport,"[1]; 50 µM CQ, 500 µM PPQ",2.17 pmol oocyte-1 h-1
same,PfCRTDd2_F145I-mediated CQ transport,"[1]; 200 µM CQ, 0 µM PPQ",11.4 pmol oocyte-1 h-1
same,PfCRTDd2_F145I-mediated CQ transport,"[1]; 200 µM CQ, 500 µM PPQ",6.33 pmol oocyte-1 h-1
same,PfCRTDd2_F145I-mediated CQ transport,"[1]; 300 µM CQ, 0 µM PPQ",18.53 pmol oocyte-1 h-1
same,PfCRTDd2_F145I-mediated CQ transport,"[1]; 300 µM CQ, 500 µM PPQ",6.83 pmol oocyte-1 h-1
same,PfCRTDd2_F145I-mediated CQ transport,"[1]; 400 µM CQ, 0 µM PPQ",22.31 pmol oocyte-1 h-1
same,PfCRTDd2_F145I-mediated CQ transport,"[1]; 500 µM CQ, 0 µM PPQ",20.2 pmol oocyte-1 h-1
same,PfCRTDd2_F145I-mediated CQ transport,"[1]; 500 µM CQ, 200 µM PPQ",10.24 pmol oocyte-1 h-1
same,PfCRTDd2_F145I-mediated CQ transport,[2]; 50 µM CQ + 100 µM VP,2.910 pmol oocyte-1 h-1 and 2.290 pmol oocyte-1 h-1 and 0.440 pmol oocyte-1 h-1 and 2.900 pmol oocyte-1 h-1 and 0.840 pmol oocyte-1 h-1
same,PfCRTDd2_F145I-mediated CQ transport,[2]; 50 µM CQ,3.800 pmol oocyte-1 h-1 and 4.280 pmol oocyte-1 h-1 and 2.840 pmol oocyte-1 h-1
"Clc1ccc2c(N3CCN(CCCN4CCN(c5ccnc6cc(Cl)ccc56)CC4)CC3)ccnc2c1 [PPQ, piperaquine]",PfCRTDd2_F145I-mediated PPQ transport,"[1]; 10 µM PPQ, 400 µM CQ",10.41 pmol oocyte-1 h-1
same,PfCRTDd2_F145I-mediated PPQ transport,"[1]; 50 µM PPQ, 400 µM CQ",21.35 pmol oocyte-1 h-1 and 27.84 pmol oocyte-1 h-1
same,PfCRTDd2_F145I-mediated PPQ transport,"[1]; 100 µM PPQ, 0 µM CQ",56.31 pmol oocyte-1 h-1
same,PfCRTDd2_F145I-mediated PPQ transport,"[1]; 100 µM PPQ, 400 µM CQ",60.06 pmol oocyte-1 h-1 and 41.63 pmol oocyte-1 h-1
same,PfCRTDd2_F145I-mediated PPQ transport,"[1]; 200 µM PPQ, 400 µM CQ",76.13 pmol oocyte-1 h-1 and 65.94 pmol oocyte-1 h-1
same,PfCRTDd2_F145I-mediated PPQ transport,"[1]; 300 µM PPQ, 0 µM CQ",91.14 pmol oocyte-1 h-1
same,PfCRTDd2_F145I-mediated PPQ transport,"[1]; 300 µM PPQ, 400 µM CQ",72.65 pmol oocyte-1 h-1 and 78.11 pmol oocyte-1 h-1
same,PfCRTDd2_F145I-mediated PPQ transport,"[1]; 400 µM PPQ, 0 µM CQ",105.11 pmol oocyte-1 h-1
same,PfCRTDd2_F145I-mediated PPQ transport,"[1]; 400 µM PPQ, 400 µM CQ",66.95 pmol oocyte-1 h-1
same,PfCRTDd2_F145I-mediated PPQ transport,"[1]; 500 µM PPQ, 0 µM CQ",79.05 pmol oocyte-1 h-1
same,PfCRTDd2_F145I-mediated PPQ transport,"[1]; 500 µM PPQ, 50 µM CQ",119.38 pmol oocyte-1 h-1
same,PfCRTDd2_F145I-mediated PPQ transport,"[1]; 500 µM PPQ, 200 µM CQ",120.41 pmol oocyte-1 h-1
same,PfCRTDd2_F145I-mediated PPQ transport,"[1]; 500 µM PPQ, 400 µM CQ",83 pmol oocyte-1 h-1 and 98.45 pmol oocyte-1 h-1
same,PfCRTDd2_F145I-mediated PPQ transport,[2]; 50 µM PPQ + 100 µM VP,7.33 pmol oocyte-1 h-1 and 14.31 pmol oocyte-1 h-1 and 22.24 pmol oocyte-1 h-1 and 5.89 pmol oocyte-1 h-1 and 25.58 pmol oocyte-1 h-1
same,PfCRTDd2_F145I-mediated PPQ transport,[2]; 50 µM PPQ,75.44 pmol oocyte-1 h-1 and 27.59 pmol oocyte-1 h-1 and 75.68 pmol oocyte-1 h-1 and 39.58 pmol oocyte-1 h-1 and 36.72 pmol oocyte-1 h-1 and 42.92 pmol oocyte-1 h-1
